The target of test [1] is T1, neuropilin-2-Ig fusion protein (UniProt O60462).
T1 sequence (looked up): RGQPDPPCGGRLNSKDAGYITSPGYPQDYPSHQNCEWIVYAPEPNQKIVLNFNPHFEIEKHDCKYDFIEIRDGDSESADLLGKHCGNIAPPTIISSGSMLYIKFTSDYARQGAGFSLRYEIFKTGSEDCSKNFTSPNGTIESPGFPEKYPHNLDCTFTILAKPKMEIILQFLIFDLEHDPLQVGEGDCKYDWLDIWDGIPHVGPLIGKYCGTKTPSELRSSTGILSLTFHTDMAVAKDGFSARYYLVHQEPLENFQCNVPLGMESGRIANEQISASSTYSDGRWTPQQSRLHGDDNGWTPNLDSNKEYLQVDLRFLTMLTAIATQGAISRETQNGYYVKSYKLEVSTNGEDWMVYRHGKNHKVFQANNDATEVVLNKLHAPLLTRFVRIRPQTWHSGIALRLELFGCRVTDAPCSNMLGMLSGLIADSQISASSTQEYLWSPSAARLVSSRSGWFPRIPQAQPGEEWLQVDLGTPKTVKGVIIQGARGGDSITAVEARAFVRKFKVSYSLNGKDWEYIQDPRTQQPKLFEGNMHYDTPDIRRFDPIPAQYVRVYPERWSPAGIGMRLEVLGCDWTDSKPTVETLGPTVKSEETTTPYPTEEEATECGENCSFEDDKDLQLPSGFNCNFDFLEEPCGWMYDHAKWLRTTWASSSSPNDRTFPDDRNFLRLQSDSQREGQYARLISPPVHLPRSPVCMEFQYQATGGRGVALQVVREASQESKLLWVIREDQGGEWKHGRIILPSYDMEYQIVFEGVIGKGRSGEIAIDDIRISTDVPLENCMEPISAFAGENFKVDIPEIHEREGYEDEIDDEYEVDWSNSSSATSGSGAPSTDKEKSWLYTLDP
As to the kind of experiment: pull-down of 35S-labelled 293T conditioned medium with NP2-Ig, SDS-PAGE, autoradiography.

Sequences of proteins named here, by UniProt entry; tags and fusion partners are left off. Residues count along the entry.
UniProt P16234, residues 24-524: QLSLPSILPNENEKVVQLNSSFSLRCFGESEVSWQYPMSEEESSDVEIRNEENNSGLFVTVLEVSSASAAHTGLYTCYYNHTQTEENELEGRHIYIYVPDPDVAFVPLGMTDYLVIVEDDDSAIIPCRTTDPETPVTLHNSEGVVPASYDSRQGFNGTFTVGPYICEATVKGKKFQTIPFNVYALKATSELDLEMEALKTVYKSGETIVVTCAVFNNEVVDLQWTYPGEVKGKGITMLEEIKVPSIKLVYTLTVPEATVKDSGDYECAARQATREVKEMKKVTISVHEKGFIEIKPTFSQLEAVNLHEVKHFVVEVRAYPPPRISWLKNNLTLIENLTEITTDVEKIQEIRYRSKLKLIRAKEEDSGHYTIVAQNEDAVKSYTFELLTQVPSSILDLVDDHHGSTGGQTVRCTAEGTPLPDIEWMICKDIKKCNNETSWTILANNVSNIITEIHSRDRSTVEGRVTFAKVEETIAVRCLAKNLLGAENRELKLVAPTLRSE

Test [2] deals with PDGF receptor α-Ig fusion protein (UniProt P16234). Put plainly: precipitation of 35S-labelled medium with PDGF receptor α-Ig, protein A-sepharose, 12% PAGE.
Test [3] shares this target. Put plainly: precipitation of 35S-labelled medium with PDGF receptor α-Ig, protein A-sepharose, SDS-PAGE.
Test [4] concerns the target PDGF receptor β-Ig fusion protein (UniProt P09619). As to the kind of experiment: precipitation of 35S-labelled protein with PDGF receptor β-Ig, protein A-sepharose, 12% PAGE.

These are yes or no findings as the source states them, for the method shown. For some assays here: In cells and extracts the contact can be indirect. Some results given as binding are weak or reduced against the parent protein; the word gives no strength. For some assays here: Sequences can lack the tags named with a protein.

For the substance “VEGF-A165 (from UniProt P15692 207-395) (ligand)”, the binding entry in test [1] was “binds”.
For “PDGF-B (from UniProt P01127 82-190) (ligand)”, the binding result in test [2] and in test [3] was “binds” throughout.
Take “PDGF-CΔN (from UniProt Q9NRA1 242-345) (ligand)”: the binding result is listed as “no binding” in test [4] and “binds” in test [2].

The values above are taken from patent publication US20070142282A1.
